Source: PubChem BioAssay AID1963576 (National Center for Advancing Translational Sciences (NCATS), 2024)
The campaign covered roughly 46,000 compounds. About 60 (0.1%) were called active. Another 3% or so got no clear call; they are omitted. Calls come from the whole dose curve; as a rule, active = well fitted inhibition curve with a large enough effect; inconclusive = small, poorly fitted or top-dose-only effect; inactive = no such curve, though single readings can be large or run the other way. The list shows a part of the results.

Assay: Primary qHTS assay for Inhibitors of ovarian cancer metastasis using an organotypic tumor microenvironment (TME) model.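 For activity change, negative = inhibition: plate controls were DMSO wells for no effect and tomatine positive control wells for full effect.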 Note: nearly all actives have a fitted effect of over 65% in size.
Details: SKOV3ip1-GFP adhesion/invasion on 3D omental model, fluorescence; series mostly up to 45.8 µM; activity change, negative = inhibition: at the top concentration
Outline: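 Adhesion/invasion was scored as fixed GFP-labeled SKOV3ip1 cell counts (488/509 nm), normalized to DMSO and tomatine controls. Cancer cells in serum-free medium, with four compound doses (0.36-46 umol/L), sat 2 hr at RT then 16 hr at 37 C on a 48 hr fibroblast/mesothelial/ECM culture.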

Activity change, negative = inhibition, inactive:
O=C(CCc1nc2cccnc2n1Cc1ccccc1)NCc1cccc(Cl)c1 -3.49%
Cc1c(C(=O)N2CCCC2)oc2c1-c1nn(CC(=O)NCc3cccc(F)c3)cc1CC2 -0.543%
COC(=O)NNC(=O)C1CCC(C)CC1 (stereo not given) 2.06%
CCOc1ccc(CCNc2ncnc3onc(-c4ccc(F)cc4)c23)cc1OCC 11.5%
CCN(CC)CCCNC(=O)CCc1c(C)n(CC)c2cc(-c3ccccc3OC)nn2c1=O 1.45%
Cc1ncc(COC(=O)C(C)C)c2cc(C(=O)Nc3ccccc3C(F)(F)F)c(=O)oc12 -7%
CCCCn1c(CNC(=O)C23CC4CC(CC(C4)C2)C3)nnc1SCC(=O)Nc1ccccc1 -6.98%
O=S(=O)(c1ccc(-c2cc(C(F)(F)F)on2)s1)N1CCN(c2cccc(Cl)c2)CC1 -5.48%
CCN1CCN(CCCNC(=O)c2cc3c(s2)-c2c(C)cccc2OC3)CC1 -5.23%
CCn1ccc2cc(S(=O)(=O)N3CCC(C(=O)NCCOC)CC3)ccc21 2.61%
CCOc1ccccc1CNC(=O)c1[nH]c2ccccc2c1Sc1ccccc1 3%
CCc1nc2ccc(C(=O)NCCc3ccc(OC)c(OC)c3)cc2nc1CC -4.07%
Cc1ccc2c(c1)c1c(n2CCc2ccc(C)nc2)CCN(C)C1 25.7%
Cc1ccccc1OCC(=O)Nc1ccccc1C(=O)OCc1cc(=O)n2c(C)csc2n1 15.6%
Cc1nn2c(C(F)(F)F)cc(-c3ccc(OC(C)C)cc3)nc2c1C#N -0.154%
COc1ccc(C(CC(=O)Nc2ccc(OC)c(OC)c2)N2Cc3ccccc3C2=O)cc1 (stereo not given) 9.14%
COc1ccc(OC)c(CCNC(=O)c2ccc3[nH]c(C)c(C)c3c2)c1 1.14%
COCCn1c(C)cc(O)c(C(c2ccccc2OC)N2CCCCC2)c1=O (stereo not given) 1.17%
COc1cccc(CNC(=O)c2cc3c(=O)n(C)c4ccccc4c3n2C)c1 -13.3%
COc1ccccc1CCNC(=O)CCc1c(C)c2cc3c(C)coc3cc2oc1=O 13%
Cc1ccc2c(CC(=O)Nc3c(C(=O)Nc4cccc(Cl)c4)oc4ccccc34)coc2c1C 3.96%
Cc1ccc2nc(SCc3nc(-c4ccccc4C)no3)[nH]c2c1 -4.95%
Cc1ccc(N2CCN(C(=O)C3CCC(CNS(=O)(=O)c4ccc(Br)s4)CC3)CC2C)cc1 (stereo not given) -3.95%
Cc1ccc(Cl)cc1Nc1sc(C(=O)c2ccccc2)c(N)c1S(=O)(=O)c1ccccc1 -8.98%
COc1ccc(NC(=O)CSC2=Nc3ccccc3C3=NC(Cc4ccccc4)C(=O)N23)cc1Cl (stereo not given) 5.35%
CN(Cc1ccccc1)C(=O)Cn1ncc2c3ccccc3n(Cc3cccc(Cl)c3)c2c1=O -7.62%
Cc1ccc(Nc2cc(C(=O)NC3CCCC3)c3ccccc3n2)c(C)c1 -3.95%
COc1cc(C2c3c(oc4ccccc4c3=O)C(=O)N2Cc2ccccc2Cl)ccc1O (stereo not given) 9.65%
COc1cc(CCC(=O)NCc2ccc3c(c2)CCN3C(=O)c2cccc(C)c2)cc(OC)c1OC -9.08%
CC(C)(C)c1ccc(C(=O)N2CC(=O)Nc3ccc(F)cc3C2c2ccc(F)cc2)cc1 (stereo not given) -4.04%
CCc1cnc2c(c1SCC(=O)NCc1ccccc1)c(=O)n(C)c(=O)n2C 0.735%
CCN1c2ccccc2-c2nc(SCC(=O)Nc3cc(OC)cc(OC)c3)ncc2S1(=O)=O -7.32%
CCCN(C(=O)c1c(C)oc2ncn(CC(C)C)c(=O)c12)c1ccccc1C 0.659%
COc1ccc(-c2nn(C)c3sc(C(=O)Nc4cc(OC)c(OC)c(OC)c4)cc23)cc1OC -1.77%
CCOc1ccccc1NC(=O)CSc1nnc(CC)c(CC)n1 6.72%
Cc1cccc2nc(Cn3c(=O)n(-c4ccccc4)c(=O)c4c5c(sc43)CCC5)cc(=O)n12 2.21%
COc1ccc(CCNC(=O)c2c(Nc3ccccc3C)sc(C(=O)c3ccccc3)c2N)cc1OC -12.4%
CC(C)n1c(SCC(=O)c2ccc(F)cc2)nc2c(sc3ccccc32)c1=O 5.13%
Cc1ccccc1OCC(=O)Nc1nnc(SCc2cc(=O)n3cccc(C)c3n2)s1 3.69%
Cc1ccc(O)c(NC(=O)C2=CC(c3cccs3)=NS(=O)(=O)N2C)c1 8.45%
COc1cccc(CNC(=O)c2cc3cc(C)ccc3n2C)c1 -42.6%
COc1cccc(CN2CCCN(Cc3ccc(F)cc3)S2(=O)=O)c1 2.63%
Cn1c(=O)n(C)c2cc(N3CCCCC3)c(NC(=O)Nc3ccc(Br)cc3)cc21 -3.29%
CCc1ccc(NC(=O)CSc2nc3c([nH]c4ccccc43)c(=O)n2C)cc1 -8.76%
CCN(CC)c1ccc(NC(=O)Cn2cc3c(n2)CCCC3)c(C)c1 -16.1%
CC1Cc2cc(S(=O)(=O)CCC(=O)Nc3ccc(F)cc3Cl)ccc2N1C(=O)C1CC1 (stereo not given) 14.1%
Cn1cc(S(=O)(=O)N2CCc3ccccc32)cc1C(=O)Nc1ccc(C(F)(F)F)cc1 -3.31%
Cc1ccc(-n2nc(C(=O)N3CCN(c4cc(C)ccc4C)CC3)c3c4ccccc4n(C)c3c2=O)cc1 -7.43%
Cc1c(NC(=O)C(C)(C)C)cccc1-c1nc2ccccc2s1 -1.24%
CCOC(=O)c1cc2c(=O)n3ccccc3nc2n(CC2CCCO2)c1=NC(=O)c1ccccc1OCC (stereo not given) 3.13%
COc1ccc(N2CCN(C(CNC(=O)c3c(F)cccc3F)c3ccc4c(c3)OCO4)CC2)cc1 (stereo not given) 3.47%
Cc1ccc(CNC(=O)C2CCCN(c3nn4cc(-c5ccc(C)cc5)nc4s3)C2)cc1 (stereo not given) 7.3%
COCCn1c(SCc2ccccc2F)nc2c([nH]c3ccccc32)c1=O -5.26%
COC(=O)Cc1c(C)c2ccc3c(c2oc1=O)CN(Cc1ccc(Cl)cc1)CO3 0.266%
COc1ccc(NC(=O)CCn2cnnn2)cc1 12.5%
Cc1cccc(CNC(=O)c2ccc(Cn3c(SCc4cccc(F)c4)nc4cccnc43)cc2)c1 -33.3%
COc1cc(CN(C(=O)c2ccc(C)cc2)C2CCS(=O)(=O)C2)cc(OC)c1OC (stereo not given) 2.72%
COc1ccc(CNC(=O)C2CCN(S(=O)(=O)N3CCC(C)CC3)CC2)c(OC)c1 3.39%
COc1ccc(-c2ccc(CCC(=O)O)n2-c2ccccc2C(F)(F)F)cc1 -8.83%
Cc1ccc(S(=O)(=O)c2cn(CC(=O)Nc3ccc4c(c3)OCO4)c3ccc(C)cc3c2=O)cc1 8.43%
N#C/C(=C\c1cccc(F)c1)c1nc(-c2cc3ccccc3oc2=O)cs1 7.23%
Cc1ccc2c(c1)c1c(c(=O)n(Cc3ccccc3)c(=O)n1Cc1cccc(F)c1)n2C 17%
Cc1ccccc1OCc1nnc(SCc2cc(=O)c3cc(F)ccc3[nH]2)n1C -2.19%
CCOC(=O)CN(Cc1ccccc1)C(C(=O)NC1CCCCC1)c1ccccc1 (stereo not given) -0.325%
CCOc1ccc(-c2cc(C)n3nc(C(=O)Nc4ccc(C)c(C)c4)cc3n2)cc1 -8.61%
CCc1nnc(SCC(=O)Nc2ccc(OC)c(OC)c2)c2cc3occc3n12 2.76%
CC(Oc1ccccc1)C(=O)Nc1ccccc1C(=O)OCc1cc(=O)n2nc(C3CC3)sc2n1 (stereo not given) 0.555%
COc1ccc(C(=O)N(c2ccc(OC)cc2)S(=O)(=O)c2ccc3c(c2)n(C)c(=O)n3C)cc1 4.87%
Cc1ccc(-c2nnc(Nc3ccccc3)c3ccccc23)cc1S(=O)(=O)NCc1nc2ccccc2[nH]1 4.45%
Cc1cccc(N2CCN(C(=O)CCS(=O)(=O)c3ccc4c(c3)oc(=O)n4C)CC2)c1C 14.9%
Cc1ccccc1NC(=O)CCC(=O)N1CC(C)Sc2ccccc21 (stereo not given) 3.03%
COc1cccc(CNC(=O)CSC2=Nc3ccccc3C3=NC(C(C)C)C(=O)N23)c1 (stereo not given) 1.84%

outcome, inactive:
Cc1ccc2c(c1)N(C(=O)N1CCC(C(=O)NCCC3=CCCCC3)CC1)CC(C)O2 (stereo not given)
CCNC(=O)c1cnc2sc(N3CCC(C)CC3)nn2c1=O
Cc1cccc(N2C(=O)CS(=O)(=O)C23C(=O)N(C)c2ccccc23)c1 (stereo not given)
CN1c2ccc(Cl)cc2-c2nc(SCC(=O)Nc3cc(F)ccc3F)ncc2S1(=O)=O
O=C(c1ccco1)N1CCN(c2nc3ccc(Cl)cc3s2)CC1
Cc1ccc(C)c(N2CCN(C(=O)c3cccn3-c3nnc(N4CCCCC4)s3)CC2)c1
COc1ccc2cc(CNc3ccccc3)c(=O)n(CC(=O)Nc3ccc(C)cc3C)c2c1
Cc1ccc(NC(=O)Cn2c(=O)c(C(F)(F)F)nc3ccccc32)c(C)c1
CCCCN(CC)CCNC(=O)Cn1c(=O)c2cccn2c2cccnc21
Cc1ccccc1Cn1c(Oc2ccccc2F)nc2c1c(=O)n(C)c(=O)n2C
Cc1cc(C)c2oc(-c3cccc(NC(=O)c4cc5ccccc5o4)c3)nc2c1
COc1ccccc1OCCCn1c(C2CC(=O)N(c3ccc(F)cc3)C2)nc2ccccc21 (stereo not given)
COc1ccc(C)cc1NC(=O)C1CCN(S(=O)(=O)Cc2ccccc2)CC1
CCCOc1ccc(C(=O)Nc2cc(-c3nc4ccccc4[nH]3)ccc2C)cc1
CCOc1ccccc1NC(=O)Cn1c(=O)n(-c2ccc(Cl)cc2)c(=O)c2oc3ccccc3c21
Cc1ccc(-n2c(=O)c3ccc(C(=O)NCc4ccccc4Cl)cc3n(Cc3cccc(F)c3)c2=O)cc1
CCOc1ccc(-n2cc(-c3ccccc3)c3c(NCc4ccccc4)ncnc32)cc1
COc1ccc(-c2nc3ccccc3o2)cc1NC(=O)c1cc([N+](=O)[O-])ccc1N1CCOCC1
CCC1CN(CC(=O)NCc2cccc(Br)c2)c2ccccc2S1 (stereo not given)
COC(=O)Cc1c(C)nc2nc(NCc3ccc(Br)cc3)[nH]n2c1=O
CCc1ccc(N2CC(C)Cn3c2nc2c3c(=O)n(CC(=O)O)c(=O)n2C)cc1 (stereo not given)
Cc1ccc(C)c(N2CCN(CCCNC(=O)c3ccc4nc(N5CCCCC5)sc4c3)CC2)c1
CCOC(=O)COc1ccc([N+](=O)[O-])cc1-c1ccnc2cc(-c3ccc(C)cc3)nn12
